Where “and” joins values, the source holds several entries; their conditions need not be identical. Equal values may be shown once. The whole screen tested about 110,000 compounds, of which about 230 (0.21%) showed an effect of 50% or more. The list shows a part of the results.
Target: DPAP1 (Plasmodium falciparum, UniProt Q8IIJ9)
Experiment: primary screen, percent inhibition; read by cleavage of a fluorogenic dipeptide substrate; higher = more effect of the substance
Set-up: species or system P. falciparum D10 trophozoite lysates; single well
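Further: 30 min substrate incubation versus DMSO and 10 µM JCP410 controls.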

Sequence of DPAP1 (Q8IIJ9 whole entry, looked up): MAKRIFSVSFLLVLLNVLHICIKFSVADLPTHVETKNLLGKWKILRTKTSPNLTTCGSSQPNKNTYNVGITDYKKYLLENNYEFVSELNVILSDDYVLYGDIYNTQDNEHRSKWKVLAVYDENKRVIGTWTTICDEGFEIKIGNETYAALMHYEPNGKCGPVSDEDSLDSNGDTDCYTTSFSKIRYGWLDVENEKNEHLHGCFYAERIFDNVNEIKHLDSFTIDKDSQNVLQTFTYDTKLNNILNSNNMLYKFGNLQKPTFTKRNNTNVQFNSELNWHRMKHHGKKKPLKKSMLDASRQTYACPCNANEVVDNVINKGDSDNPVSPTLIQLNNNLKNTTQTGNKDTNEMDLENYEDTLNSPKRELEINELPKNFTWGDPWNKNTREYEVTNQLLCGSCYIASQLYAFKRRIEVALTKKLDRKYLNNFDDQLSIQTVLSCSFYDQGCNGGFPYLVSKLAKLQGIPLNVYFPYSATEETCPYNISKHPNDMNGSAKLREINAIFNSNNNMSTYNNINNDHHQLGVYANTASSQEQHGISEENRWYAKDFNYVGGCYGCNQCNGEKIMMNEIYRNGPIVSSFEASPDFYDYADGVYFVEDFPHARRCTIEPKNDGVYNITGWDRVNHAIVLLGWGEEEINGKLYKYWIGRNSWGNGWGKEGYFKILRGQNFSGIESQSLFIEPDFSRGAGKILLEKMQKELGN

Compound	% Inhibition @ 10 uM
COc1cc(/C=C2/SC(N3CC(C)OC(C)C3)=NC2=O)ccc1O (stereo not drawn)	1.28%
CN(CCCNC(=O)C1CCC(CNS(=O)(=O)c2ccccc2)CC1)Cc1ccccc1 (stereo not drawn)	-2.72%
Cc1[nH]nc2c1C1(CCN(Cc3ccccc3)CC1)C(C#N)=C(N)O2	-2.48% and 3.01%
Nc1ccccc1/N=C1/C=C(O)CC(c2cccs2)C1 (stereo not drawn)	2.44%
CC(C)c1ccc(SCCc2ccccn2)cc1	5%
CCOC(=O)c1c2n(c3cc(Cl)c([N+](=O)[O-])cc3c1=O)CCCCC2	3.1%
O=C(NCCc1ccc(Cl)cc1)C1CCC(=O)N1CCc1ccccc1 (stereo not drawn)	4.81%
CN(C)c1ccc(C2C3=C(O)CC(C)(C)CC3=Nc3ncnn32)cc1 (stereo not drawn)	-3.63%
Cc1cc2c(cc3c(SCc4nc(-c5ccccc5F)oc4C)nnc(C)n32)o1	0.896%
CC(Oc1ccc(Cl)cc1Cl)c1nc(-c2ccncc2)no1 (stereo not drawn)	-6.86%
O=C(CSCc1c(Cl)cccc1Cl)NCc1cccnc1	3.05%
CN(C)/C=N/C(=O)CN1CCCC1=O	-1.69%
O=C(CCNC(=O)Cn1cnc2sc3c(c2c1=O)CCCC3)NCC1CCCO1 (stereo not drawn)	-2.4%
COc1ccccc1OCc1ccc(C(=O)NCc2ccccc2F)cc1	2.09%
OCC1c2ccccc2-c2ccccc21	0.673%
Cc1cccc(N2C(=O)CC(n3c(C)nc4ccccc43)C2=O)c1 (stereo not drawn)	-1.36%
O=S(=O)(c1cccc2nsnc12)N1CCC(O)(c2cccc(C(F)(F)F)c2)CC1	16.4%
O=C(CCCC(=O)c1ccccc1)NCCSCc1ccccc1	-5.03%
COc1ccccc1C(=O)N/C(=C/c1ccc(Br)cc1)C(=O)N1CCCCC1	-8.88%
C=CCOCC(O)CSCc1ccccc1 (stereo not drawn)	-6.86%
O=C(NCC1COc2ccccc2O1)C1CCN(S(=O)(=O)c2c[nH]cn2)CC1 (stereo not drawn)	4.51%
COC(=O)c1ccc2nc(Nc3nc4cc5c(cc4s3)OCO5)sc2c1	0.458%

Compound	% Inhibition @ 10 uM
C=CCN1CC(=O)C(c2nc3cc(C)ccc3[nH]2)=C1N	-3.22%
C=Cc1ccc(Cn2c(C(=O)O)c(CNCCc3cccs3)c3ccccc32)cc1	-3.21%
Cc1ccc(Cc2nnc(C(=O)NC3CCCCCC3)o2)cc1	0.974%
COc1ccccc1C(c1ccc(C)o1)c1ccc(C)o1	16.1%
COC(=O)c1nnn(-c2ccc(C)c(Cl)c2)c1C(=O)OC	-3.39%
CC(=O)Nc1ccc(S(=O)(=O)Nc2ccn(Cc3ccccc3Cl)n2)cc1	-3.77%
OC(COCc1ccccc1F)CN1CCCCC1 (stereo not drawn)	1.49%
COc1ccc(CC(=O)NC(C)C(c2cccs2)N2CCN(C)CC2)cc1OC (stereo not drawn)	5.53%
CNC(=O)Cc1coc2ccc3ccccc3c12	-1.11%
Cn1c2ccccc2c2nnc(NCc3ccccc3)nc21	-0.0652%
Cc1ccc(C(C)C)c(OCC(=O)Nc2ccc(S(=O)(=O)Nc3nccs3)cc2)c1	-3.13%
Cc1ccc(Cn2c(C)c3cnn(CC(=O)NC(C)c4ccccc4)c(=O)c3c2C)cc1 (stereo not drawn)	1.22%
NC(=O)c1cc(S(=O)(=O)NCCCc2ccco2)cs1	-2.31%
Cc1ccc(C(=O)Nc2sc3c(c2C(N)=O)CCCCCC3)o1	1.57%
C=CCSC[C@H](NC(=O)OCc1ccccc1)C(=O)NCC#N	15.6%
CCC(C)NC(=O)CN1C(=O)NC2NC(=O)NC21 (stereo not drawn)	6.37%
Cc1cc(NC(=O)c2cc(-c3ccccc3Cl)nc3ccccc23)no1	0.64%
O=C(Cn1nc(Cc2ccncc2)c2ccccc2c1=O)N1CC=C(c2ccccc2)CC1	9.33%
CC1(C)CC(C)(c2ccccc2O)Oc2ccccc21 (stereo not drawn)	-3.49%
COc1cc(NC(=O)c2sc3nc(-c4ccc(F)cc4)ccc3c2N)cc(OC)c1OC	-1.6%
COc1cc(SC)ccc1C(=O)N1CCCC1	-0.759%
FC(F)(F)c1nnc(N2CCNCC2)s1	0.627%

Compound	% Inhibition @ 10 uM
CC(C)Oc1ccc(CNCc2ccc(C(=O)O)s2)cc1	-5.43%
O=C(CCc1ccccc1)Nc1ccccc1C(=O)Nc1ccccc1	-1.38%
Cc1ccc(C(=O)N2CCN(c3ccccc3)CC2)cc1	-0.856%
Cn1c(=O)c2c(nc(NCCOc3ccc(Cl)cc3)n2C)n(C)c1=O	3.34%
O=S(=O)(c1ccccc1)c1nnn2c1nc(NCC1CCCO1)c1sccc12 (stereo not drawn)	-3.15%
CCOC(C#CCN(CC)CC)(c1ccccc1)c1ccccc1	-2.15%
Cc1ccc(C(=O)N2CCc3ccccc3C2)cc1	-3.04%
CC(C)C[C@H](Nc1nc(-c2cccc(NC(=O)Oc3ccccc3)c2)cs1)C(=O)NCC#N	0.079%
CCOC(=O)Nc1ccc2c(c1)N(C(C)=O)c1ccccc1CC2	0.912%
Cc1ccnc(NC(=O)Cn2ncc3c4ccccc4nc-3c2O)c1	1.9%
Cn1nc(C(=O)NCCc2ccc(S(N)(=O)=O)cc2)c2c1-c1ccccc1S(=O)(=O)C2	3.71%
O=C(O)c1cnccc1C(=O)Nc1cccc(F)c1	1.89%
CC1CCC(N2CCN(c3ccc(Cl)cc3)CC2)CC1 (stereo not drawn)	4.75%
O=c1c(-c2ccccc2)coc2cc(OCc3ccccc3F)ccc12	-1.17%
COc1cccc(C(=O)C2=C(O)C(=O)N(CCCn3ccnc3)C2c2ccccn2)c1 (stereo not drawn)	-15.1%
CS(=O)(=O)N(CC(=O)N1CCOCC1)c1ccc(Cl)c(Cl)c1	-3.65%
CC(=O)N1c2ccccc2N=C2CC(c3cccs3)CC(O)=C2C1c1ccc(F)cc1 (stereo not drawn)	-0.864%
O=C1CC(c2ccccc2)n2ncnc2N1 (stereo not drawn)	2.17%
COc1ccc2[nH]c(C)c(CCNC(=S)NC3CCCCC3)c2c1	2.85%
CC1(C)CC(O)=C(C(=O)c2ccccc2)/C(=N/CCO)C1	-2.77% and 3.59%
CC1CCCN(CCCNC(=O)c2ccc(CS(=O)c3ccccc3)o2)C1 (stereo not drawn)	-4.96%
O=C1CC(c2ccc(Cl)c(Cl)c2)C2=C(CC(c3cccs3)CC2=O)N1 (stereo not drawn)	-2.87%

Source: PMC6919601, “Identification of Plasmodium dipeptidyl aminopeptidase allosteric inhibitors by high throughput screening” (PLoS ONE, 2019)
